The values that follow come from publication PMC10726135.

This is one part of the list. At the low end of the ranking, values are background and their order means little. The protein was read in a cell extract, so binding may be indirect.

This test has as its target T1, HNF4alpha2 (COS-7 nuclear extract) (UniProt P41235).
T1 sequence: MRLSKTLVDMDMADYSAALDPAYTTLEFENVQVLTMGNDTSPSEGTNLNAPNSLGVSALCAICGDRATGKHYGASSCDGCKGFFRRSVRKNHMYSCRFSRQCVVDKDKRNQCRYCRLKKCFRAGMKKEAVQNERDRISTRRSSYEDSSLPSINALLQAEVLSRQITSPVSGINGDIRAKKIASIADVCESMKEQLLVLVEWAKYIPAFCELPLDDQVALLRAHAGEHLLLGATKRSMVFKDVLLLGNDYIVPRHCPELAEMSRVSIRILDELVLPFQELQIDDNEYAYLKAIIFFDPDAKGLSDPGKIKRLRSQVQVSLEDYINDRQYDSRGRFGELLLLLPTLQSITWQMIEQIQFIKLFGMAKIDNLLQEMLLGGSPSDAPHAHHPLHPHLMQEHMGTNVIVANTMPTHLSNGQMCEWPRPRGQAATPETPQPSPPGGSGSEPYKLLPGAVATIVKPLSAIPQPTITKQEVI
In words: protein-binding microarray. As to conditions: COS-7 nuclear extract on double-stranded Agilent 4x180k PBM; binding buffer, salt, pH and temperature not given; high values mean tight binding; double strand, one strand shown; sequences stand for … in …GCCTAGGGAGATTAGAGTATCGGTCGA
With GGATGTCTTTTGTTCTAATGAGGCCACTCC, the binding signal (log2 normalized intensity) came to 0.797.
In the case of TATTCTATCAGTAGGTACGTTTGTGATACA, the binding signal (log2 normalized intensity) is 1.47.
Regarding TTTGCCCTTTTTAATGTTTCATTAAGCAAG, the binding signal (log2 normalized intensity) worked out at 0.761.
Consider ACCGGCCAAACTGGTTTCTCCGCTCGGGGA, for which the binding signal (log2 normalized intensity) was -1.1.
In the case of AGCTTAAGCATACAGATTACATCTCCAGCT, the binding signal (log2 normalized intensity) is -1.1.
Take GATAAGGAATGAGGAGTCAGAGCGTGTTTC: the binding signal (log2 normalized intensity) was 0.046.
Regarding GACAAAGTGTGCACTTTGCACCTGGGCTGG, the binding signal (log2 normalized intensity) came to 4.51.
As to CCAAAGGAATCTACATAACAAACATTACTA, the binding signal (log2 normalized intensity) was -1.04.
CAATTCGCATTTCTGCTTCTTCTCATTCTT: the binding signal (log2 normalized intensity) was 0.808.
As for GCTTAAAACGACTGATTCTCAGGCATCTCT, the binding signal (log2 normalized intensity) is -1.07.
Consider CCCAGTTCAAAGGTTAAGACTTTGAATCAG, for which the binding signal (log2 normalized intensity) turned out to be 3.31.
Regarding TAATCAGCAAGTTTTATATGAAAACAAAGG, the binding signal (log2 normalized intensity) was determined as 0.544.
As to GTTATCTCTTTTGTGATAGAATGAATGGAA, the binding signal (log2 normalized intensity) came out at 1.84.
To GTTGCCCAGCTATTAAATGGAATACTTGCC belongs -0.901; to GTTCGTGCTTCTTGGCCTCTTTGTTTACAC, 1.62; to GCTTCCAAGAATTTAAGAGAACTAGAGATA, -0.553.
Consider TTTTTTTGTTGTTATCCATTTAAAAAGTAT, for which the binding signal (log2 normalized intensity) was 1.19.
Then TTTTTCAGATCCCTCTGGTGCTGATGTGTT, with 2.17; and ATTGCCCCCTAATGGTATTTATTTTAAACC, with 2.17; and GCTGGGGTTTTACCAGGCACGCATGGAATT, with -0.636.
Regarding AGTTGCTCTGGAGTGCAGGTGGGAGGGGTG, the binding signal (log2 normalized intensity) is -0.549.
For CCCCGCCTTGGCCTCCCGGAGAGGCCCCGC, the binding signal (log2 normalized intensity) was 2.49.
In the case of GTGGCCGCGAGCACCGCGCGCGCAAAGCGG, the binding signal (log2 normalized intensity) was -1.23.
Then AAAGCAAGTTAAAACAGCAGAGCACGATGA, with -1.18.
On to ACCAACCTGTCCAAAGGTCATCTGTCACTC, for which the binding signal (log2 normalized intensity) worked out at 5.7.
Turning to AATAAGCACGTTAGAGAAAAAGCCCAAGAA, the binding signal (log2 normalized intensity) is -1.04.
In the case of TTTAACTTCTGGGGGCAAGGTACACCATCT, the binding signal (log2 normalized intensity) was determined as 3.1.
Then CCTTGCTAATAAATGATTCATTCAGCAAAT, with -1.16; and GTCAGGGAAGACTGATAAGAAAACTAGCAA, with -1.2.
Turning to CACCATATGTATGTGAAGCTTGCTGATTAC, the binding signal (log2 normalized intensity) was found to be 1.12.
Then ACCAGTCAGGCAAACAACAGGCATCAACTC, with -1.08; and TTGTCCTTAGACAGTAACCCTTGAGCTCTG, with 3.16.
Regarding AAAAGTGACCTTTGCTCCAGTTCCCAATAA, the binding signal (log2 normalized intensity) amounted to 5.9.
In the case of GATAACCGAGGCTGACAGCAGAGAGTTTTC, the binding signal (log2 normalized intensity) is -1.16.
On to CTAGTGTACAGGTGACCTTTGGAATGAACC, for which the binding signal (log2 normalized intensity) came out at 7.14.
To AATTAATGTACCCCCGGAAACACGTCCTGT belongs 3.83; to GTAAATGTACTGTAAACCTAGGTAGTGGAC, 1.58.
As for TCACCAGGATGGGCCATGACCTTTACCCCC, the binding signal (log2 normalized intensity) is 9.28.
Consider CACAGGTAATAAGCAGTAGACTAAAACCCA, for which the binding signal (log2 normalized intensity) was -1.17.
Take CAAATATTGAATGTGTTACACCTGTGTGTA: the binding signal (log2 normalized intensity) was 2.1.
To TTGCCCAGCTGTTCCGTGTTCCAGAGCCTC belongs -0.815.
Then ACCTAGGGGACATTCTTTAGAGGCTGGGTG, with 0.43; and AGAGTTGAACCCTTGGGGCTTTTGCAATTT, with 1.68.
To GGTGTTCCTGAGTAAATCTCACATTCGTTA belongs 0.699; to AACTAAGAACACAGTCATTTATTCACTTAT, -0.866; to GTTTTCAAACAATGAGAGGCAACATTCCCA, -0.709.
For TGGGGACAGGGATTAAGTACCGCTCCTCTC, the binding signal (log2 normalized intensity) was -1.11.
Take ATAACAGTGTAAGGACATTGCCCCCTATGT: the binding signal (log2 normalized intensity) is 4.34.
Consider TTTGTCACATTCCAGACTTTGTACAAGGGC, for which the binding signal (log2 normalized intensity) stood at 2.73.
Consider AAGCAGCAAACCAGATAAGACTATCTCATG, for which the binding signal (log2 normalized intensity) was -1.14.
Turning to CTCCGACCCCACGGACTTAAATTGTGCTGT, the binding signal (log2 normalized intensity) was 1.46.
As for GAACATTAACTCTCTGTGAGTGTGTTGGCA, the binding signal (log2 normalized intensity) stood at 1.43.
As for AGTCTCCGAGGAACCCAGACTGCATTTTCA, the binding signal (log2 normalized intensity) was -1.17.
Then GCTACAAAGATTGCATGAGATTTTGCTCAA, with -1.09; and TCAGCTGCCACTGGAAGCTCTTCTGTGCCT, with -1.09.
As to GCTGTCACTGGCTGCTGCTCAGGAGACCGA, the binding signal (log2 normalized intensity) was -1.27.
TTTTGAATGACAGTGTCAGGACCTTGCTCC: the binding signal (log2 normalized intensity) worked out at 2.11.
In the case of GATAAAGCAGGTTGTACCTTGACCCAAGAA, the binding signal (log2 normalized intensity) was found to be 4.88.
Consider GCCGACTGCCAGGAGGGGACTTCAAAGGCT, for which the binding signal (log2 normalized intensity) is -1.38.
As to ACAAAGCCCATGCTGGACCCTGGGCTTAGT, the binding signal (log2 normalized intensity) was found to be 1.97.
Take AAGGGCAGCAGTAACCCCCCAGGAGCGAGT: the binding signal (log2 normalized intensity) came out at 3.54.
For the sequence AGGAGGAGCCAGTGAAGACTGAAAAGAGAT, the binding signal (log2 normalized intensity) was -1.14.
To AATCTTGATAATGCCCTGACCCTAGATGAG belongs 1.57.
To GTATTGAGATAAGCAAGACTGCAGGGTCAT belongs 1.46.
For the sequence TGTCTCCCTCTGCAGCAAAGTCCAGGCATA, the binding signal (log2 normalized intensity) was found to be 1.13.
As for CTGCAAACAGTGAGCCCAGTGGAGTAGGCT, the binding signal (log2 normalized intensity) was -1.13.
Then TATCGGTCACCATAAAACATTCTATTCTAT, with -1.1; and AGGCAGCAGCTCCAATTAGGAGATCAGCCC, with -1.26.
For CATAAACTCCAACTCAGCCCCCAGCATTAT, the binding signal (log2 normalized intensity) came to 5.03.
AACAACGGCGGCCCAGTCAAACCCCGCGCT: the binding signal (log2 normalized intensity) was -1.31.
As for CCCATCCGCAGTGGGAGAGCAAGGGTCAAG, the binding signal (log2 normalized intensity) turned out to be 3.57.
Turning to ACAAAGGGCAAAGTCCCCTTTCCTCATATT, the binding signal (log2 normalized intensity) is 4.8.
TTGATTTAACATTTGTGATCTGGCACAAAT: the binding signal (log2 normalized intensity) stood at 0.545.
